# Laboratory results taken from PubChem BioAssay (NCATS).
# Inconclusive results, whose numbers are uncertain, are shown with a selection of clear calls. For part of these data: Potencies of inconclusive entries are doubtful fits and often do not repeat. The source made the active and inactive calls. Unless noted, calls come from the whole dose curve; as a rule, active = well fitted curve in the direction sought with a large enough effect; inconclusive = small, poorly fitted or top-dose-only effect, or another doubt; inactive = no such curve, though single readings can be large; an effect the other way counts as inactive or inconclusive.
# Legend:
# [1] = P-glycoprotein substrates identified in KB-8-5-11 adenocarcinoma cell line, qHTS therapeutic library screen (AID 1346987); note: potency is the fitted concentration of half-maximal effect; nearly all actives have a fitted effect of over 65% in size
# How it was run: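 In this qHTS, P-gp-rich KB-8-5-11 cells received library compounds across a concentration range. Viability was quantified by luminescence after 72 h at 37 degree C.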
# [2] = molecular target: Cytochrome P450 2C9 (Homo sapiens) (UniProt P11712); experiment: Cytochrome P450 family 2 subfamily C member 9 (CYP2C9) small molecule antagonists: luciferase biochemical (cell-free) qHTS assay (AID 1645842; active = well fitted curve in the direction sought with a large enough effect in the repeat runs; inconclusive = weak or mixed curves; inactive = no such curve, though single readings can be large; an effect the other way counts as inactive or inconclusive; note: potency is the fitted concentration of half-maximal effect; nearly all actives have a fitted effect of over 55% in size)
# How it was run: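 P450-Glo CYP2C9 system: proluciferin substrate with enzyme in mix containing 0.4% BSA, 10 min at room temperature, then NADPH regeneration solution added and incubated 1 h at 37C. Detection reagent stopped reaction; luminescence read after 20 min as RLU.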
# [3] = Primary fluorescence-based thiol-reactive (MSTI) qHTS assay for identification of artifact compounds. (AID 1845221);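 note: thiol-reactive compounds lower the probe fluorescence signal; nearly all actives have a fitted effect of over 65% in size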
# How it was run: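 First, 4 uM MSTI in 2% DMSO/PBS pH 7.4 was dispensed; next, compounds were added; then plates sat 1 h at room temperature without light. Finally, emission at 598 nm was recorded.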
# [4] = test system: HEK293; experiment: Cytotoxic Profiling of Annotated Libraries Using Quantitative High-Throughput Screening (AID 1296008); settings: Five cell lines viability, CellTiter-Glo ATP luminescence, 48-72 h; max response: stronger effect = lower value; note: nearly all actives have a fitted effect of over 60% in size; note: potency is the fitted concentration of half-maximal effect; for max response: % is set by controls: 0 for no effect and ±100 for the full control effect
# How it was run: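 Cells exposed to compounds for 48 or 72 hr at 37 degrees Celsius. Viability read as ATP-coupled luminescence with CellTiter-Glo after 10 min at room temperature.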
# [5] = test system: SKOV3; experiment: Primary qHTS to identify gynecologic anti-cancer compounds using libraries of approved drugs and bioactive compounds (AID 1345084); settings: Gynecologic cancer cell panel viability, ATPlite luminescence, 48 h; series mostly up to 57.5 µM; note: nearly all actives have a fitted effect of over 55% in size; note: potency is the fitted concentration of half-maximal effect; for activity change, negative = cytotoxicity: % is set by controls: 0 for no effect and ±100 for the full control effect
# How it was run: (§1)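 48 h compound exposure at 37 C, 5% CO2; five-point qHTS. ATPlite luminescence readout of cell ATP.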
# [6] = test system: Tov-21-G; experiment: as above; settings: Gynecologic cancer cell panel viability, ATPlite luminescence, 48 h; activity change, negative = cytotoxicity: at 57.5 µM (top of the series) unless noted
# How it was run: as §1
# [7] = test system: Zika virus NS2B-NS3 protease (unlinked complex); experiment: Primary screen GU Rhodamine qHTS for Zika virus inhibitors: Unlinked NS2B-NS3 protease assay (AID 1347159); note: nearly all actives have a fitted effect of over 60% in size; note: potency is the fitted concentration of half-maximal effect; for activity change, negative = inhibition: % is set by controls: 0 for no effect and ±100 for the full control effect
# How it was run: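 In dose–response format, inhibition of unlinked protease (25 nM) was measured with 1.5 microM bis-peptide Rhodamine110 substrate. Aprotinin served as the intraplate control.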
# [8] = qHTS to identify inhibitors of the type 1 interferon - major histocompatibility complex class I in skeletal muscle: primary screen against the NCATS Mechanism Interrogation Plate v5.0 (MIPE) Libary (AID 1347411); settings: iHSKM cells + IFN-b, HiBiT-tagged MHC-I luminescence, 24 h; activity change, negative = inhibition: at 45.8 µM (top of the series);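 note: plate controls were vehicle for no effect and reference inhibitor for full effect; nearly all actives have a fitted effect of over 65% in size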
# How it was run: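 HLA-B HiBit myoblasts, dexamethasone-free medium + 4 ng/ml IFN-b, 24 h compound, 11-pt 1:3 from 46 uM final. Readout: Nano-Glo HiBiT lytic luminescence after 10 min lysis, RT.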
# [9] = test system: PA-1; experiment: Primary qHTS to identify gynecologic anti-cancer compounds using libraries of approved drugs and bioactive compounds (AID 1345084); settings: Gynecologic cancer cell panel viability, ATPlite luminescence, 48 h; series mostly up to 57.5 µM; note: nearly all actives have a fitted effect of over 55% in size; note: potency is the fitted concentration of half-maximal effect; for activity change, negative = cytotoxicity: % is set by controls: 0 for no effect and ±100 for the full control effect
# How it was run: as §1
# [10] = Primary qHTS for inhibitors of nuclear receptor binding SET domain protein 2 (NSD2) in an isogenic RCH-ACV NSD2 p.E1099K mutant (9B) (AID 1645876); note: nearly all actives have a fitted effect of over 70% in size; note: potency is the fitted concentration of half-maximal effect
# [11] = Primary qHTS for inhibitors of nuclear receptor binding SET domain protein 2 (NSD2) in an RCH-ACV wild type WT cells (2C) (AID 1645877); settings: activity change, negative = cell killing: at 44.9 µM (top of the series) unless noted; note: potency is the fitted concentration of half-maximal effect; nearly all actives have a fitted effect of over 70% in size
# [12] = Primary redox qHTS assay for identification of artifact compounds. (AID 1845223); settings: Amplex Red/HRP redox cycling with DTT, fluorescence; redox activity (% of DA3003): at 53.8 µM (top of the series); note: potency is the fitted concentration of half-maximal effect
# How it was run: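 Redox-cycling detection via DTT (250 uM final) oxidation coupled to Amplex Red (25 uM)/HRP (250 mU/mL) in HBSS. 15 min preincubation plus 30 min after DTT, room temperature. Ex/Em 525/598 nm; 4-parameter Hill fit against DMSO and 10 uM DA3003.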
# [13] = test system: Zika virus NS2B-NS3 protease (unlinked complex); experiment: Confirmatory screen GU AMC qHTS for Zika virus inhibitors (AID 1347153);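 note: enzyme at 25 nM with substrate at 10 µM below its Km of 18.3 µM; potency is the fitted concentration of half-maximal effect; nearly all actives have a fitted effect of over 70% in size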
# How it was run: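 Unlinked NS2B-NS3 complex (25 nM) in 10 mM Tris-HCl pH 8.0, 0.01% Tween 20 preincubated 15 min with compound, then 10 microM Bz-Nle-KRR-AMC (Km 18.3 µM). Fluorescence change over 15 min, normalized, Hill-fitted.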
# [14] = ZIKV-mCherry secondary qHTS for Zika virus inhibitors (AID 1347158); note: top concentration of the series differs between compounds
# How it was run: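 Read-out is percent infection: mCherry-positive Vero cells (nuclear-proximal intensity >450 RFU, 3 SD above negative controls) counted by high-content imaging of Hoechst-stained, PFA-fixed wells after 48-72 h with ZIKV-mCherry at MOI 1 and compound.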
# [15] = test system: Zika virus NS2B-NS3 protease (linked construct); experiment: 384 well plate NINDS Rhodamine confirmatory qHTS for Zika virus inhibitors (AID 1347164);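 note: fluorescence from protease cleavage of Ac-LKRR-rhodamine 110 substrate; potency is the fitted concentration of half-maximal effect; nearly all actives have a fitted effect of over 65% in size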
# How it was run: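 Fluorescence read at ex 485 nm/em 538 nm, 25 min after adding 10 microM Ac-LKRR-Rd substrate at room temperature in the dark; signal normalized to no-enzyme and no-inhibitor controls. Enzyme final 5, 30 or 60 nM; compounds, ~15 min preincubation.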
# [16] = Tertiary RLuc qRT-PCR qHTS assay for Zika virus inhibitors (AID 1347169); note: potency is the fitted concentration of half-maximal effect; nearly all actives have a fitted effect of over 55% in size
# How it was run: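 Luminescence read-out: live-cell Renilla luciferase substrate applied to infected Vero cells, signal measured after 1-1.5 hrs. Cells had received compound before ZIKV-RLuc (Cambodian strain, MOI 1-2) infection and were incubated 48-72 hrs at 37 degrees C.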
# [17] = molecular target: Luciferin 4-monooxygenase (Photinus pyralis) (UniProt P08659); experiment: Primary firefly luciferase (FLuc) qHTS assay for identification of artifact compounds. (AID 1845220); note: nearly all actives have a fitted effect of over 60% in size
# How it was run: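 D-luciferin and ATP (10 uM each, final) in Tris acetate buffer pH 7.6 were incubated with compounds for 15 min at room temperature. The reaction was started with 10 nM Photinus pyralis luciferase and luminescence read after 5 min. Percent inhibition was fitted to a 4-parameter Hill equation.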
# [18] = qHTS of pediatric cancer cell lines to identify multiple opportunities for drug repurposing: Primary screen for SK-N-MC cells (AID 1347093); settings: SK-N-MC viability, CellTiter-Glo luminescence, 48 h; activity change, negative = cytotoxic: at 46 µM (top of the series);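 note: plate controls were DMSO neutral control for no effect and bortezomib for full effect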
# How it was run: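 Metabolically active cells were quantified by ATP-dependent luminescence (CellTiter-Glo, 15 min at room temperature) following 48 h treatment. Cells had been plated at 500-1,000 per well and settled for 5 h beforehand.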
# [19] = qHTS of pediatric cancer cell lines to identify multiple opportunities for drug repurposing: Primary screen for BT-12 cells (AID 1347101);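 note: plate controls were DMSO for no effect and bortezomib positive control for full effect; nearly all actives have a fitted effect of over 25% in size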
# How it was run: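 Cells (500-1,000/well) rested 5 h, then received compounds for 48 h; metabolically active cells were measured by CellTiter-Glo luminescence. Final concentrations spanned up to 46 µM (MIPE, 11-point) or 0.59 nM-46 µM (NPC, 8-point) in primary screens, 11-point in follow-ups.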
# [20] = molecular target: Cytochrome P450 3A4 (Homo sapiens) (UniProt P08684); experiment: Cytochrome P450 family 3 subfamily A member 4 (CYP3A4) small molecule antagonists: luciferase qHTS assay (AID 1645841; active = well fitted curve in the direction sought with a large enough effect in the repeat runs; inconclusive = weak or mixed curves; inactive = no such curve, though single readings can be large; an effect the other way counts as inactive or inconclusive; note: potency is the fitted concentration of half-maximal effect; nearly all actives have a fitted effect of over 45% in size)
# How it was run: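 P450-Glo CYP3A4 enzyme with proluciferin substrate preincubated 10 min with compound at room temperature, then NADPH regeneration 1 h. Luciferin detection reagent added for 20 min; luminescence recorded. Ketoconazole positive control.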
# [21] = test system: Nanoluciferase (engineered Oplophorus gracilirostris luciferase); experiment: Primary Nanoluciferase (NLuc) qHTS assay for identification of artifact compounds. (AID 1845222); note: potency is the fitted concentration of half-maximal effect
# How it was run: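 Diluted conditioned medium from NLuc-expressing S16 cells treated with compounds for 15 min at room temperature, then Nano-Glo substrate added; luminescence read after 5 min. Percent inhibition versus no-enzyme and DMSO controls fitted to 4-parameter Hill equation.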
# Tags give direction and shape of the fitted curve.
# Chain of UniProt P08684 (P08684 whole entry, looked up): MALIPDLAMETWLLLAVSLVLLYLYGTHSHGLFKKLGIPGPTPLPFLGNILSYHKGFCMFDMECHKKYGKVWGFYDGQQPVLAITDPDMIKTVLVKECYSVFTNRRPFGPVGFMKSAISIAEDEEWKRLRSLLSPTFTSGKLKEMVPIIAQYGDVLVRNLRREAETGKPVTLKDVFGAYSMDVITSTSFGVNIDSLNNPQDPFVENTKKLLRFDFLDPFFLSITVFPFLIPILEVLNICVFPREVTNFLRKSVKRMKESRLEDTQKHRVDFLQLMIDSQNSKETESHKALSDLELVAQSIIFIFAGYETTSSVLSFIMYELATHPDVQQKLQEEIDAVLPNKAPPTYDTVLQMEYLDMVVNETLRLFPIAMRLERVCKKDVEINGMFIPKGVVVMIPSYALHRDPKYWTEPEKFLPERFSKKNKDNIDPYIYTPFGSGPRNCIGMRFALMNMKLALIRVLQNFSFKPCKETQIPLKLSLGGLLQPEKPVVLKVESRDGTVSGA
# Chain of UniProt P11712 (P11712 whole entry, looked up): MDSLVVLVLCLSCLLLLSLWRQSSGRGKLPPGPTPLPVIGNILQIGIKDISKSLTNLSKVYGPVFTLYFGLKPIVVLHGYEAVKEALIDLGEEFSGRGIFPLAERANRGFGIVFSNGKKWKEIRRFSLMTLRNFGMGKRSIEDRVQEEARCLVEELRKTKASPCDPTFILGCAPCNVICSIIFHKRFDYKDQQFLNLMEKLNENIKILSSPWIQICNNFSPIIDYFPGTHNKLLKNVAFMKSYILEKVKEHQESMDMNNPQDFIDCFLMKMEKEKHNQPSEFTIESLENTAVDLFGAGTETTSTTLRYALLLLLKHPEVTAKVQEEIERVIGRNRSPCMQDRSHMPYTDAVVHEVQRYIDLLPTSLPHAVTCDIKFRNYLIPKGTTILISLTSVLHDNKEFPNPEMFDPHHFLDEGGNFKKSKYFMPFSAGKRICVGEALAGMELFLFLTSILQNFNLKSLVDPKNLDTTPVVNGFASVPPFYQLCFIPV
compound,measurement,setting,value
O=c1cc(OCc2ccc(F)cc2)ccn1-c1ccc(OCCN2CCCC2)cc1,Potency,[1],"inconclusive: 8.2 µM [inhibitor, partial curve]"
same,Potency,[2],"inconclusive: 30.1 µM [inhibitor, single point]"
same,Potency,[3],inactive
same,Potency,[4],"inconclusive: 9.2 µM [inhibitor, partial curve, poor fit]"
same,Potency,[5],"inconclusive: 2 µM [rising, partial curve, poor fit]"
same,Potency,[6],inactive
Nc1ncnc2c1c(COc1cccc(Cl)c1)nn2C1CCOCC1,Potency,[1],"inconclusive: 29.1 µM [inhibitor, single point]"
same,Potency,[7],inactive
same,"activity change, negative = inhibition",[8],inconclusive: -45.8% [inhibitor]
same,max response,[4],inactive: -4.69%
same,Potency,[9],inactive
C[C@@H]1O[C@@H](O[C@H]2CC[C@@]3(C)C(CC[C@]4(C)C3CC=C3[C@@H]5CC(C)(C)CC[C@]5(C(=O)O[C@@H]5O[C@H](CO)[C@@H](O)[C@H](O)[C@H]5O)CC[C@]34C)[C@]2(C)CO)[C@H](O)[C@H](O[C@@H]2O[C@H](CO)[C@@H](O)[C@H](O)[C@H]2O)[C@H]1O (stereo not given in full),Potency,[10],"inconclusive: 6.9 µM [inhibitor, single point]"
same,Potency,[11],active: 3.46 µM
same,Potency,[12],"inconclusive: 1.42 µM [activator, partial curve]"
same,Potency,[4],"inconclusive: 7.78 µM [inhibitor, single point]"
same,Potency,[9],"inconclusive: 4.47 µM [cytotoxic, partial curve]"
same,"activity change, negative = cytotoxicity",[5],inactive: 8.14% [at 11.6 µM]
CC#C[C@@H](CC(=O)O)c1ccc(OCc2ccc(CN3CCC4(C=Cc5ccccc54)CC3)s2)cc1,Potency,[1],"inconclusive: 32.6 µM [inhibitor, partial curve, poor fit]"
same,Potency,[13],active: 39.3 µM
same,Potency,[14],inactive
same,Potency,[7],active: 3.16 µM
same,Potency,[15],"inconclusive: 3.98 µM [inhibitor, full curve, poor fit]"
same,Potency,[16],"inconclusive: 18.6 µM [inhibitor, partial curve, poor fit]"
same,Potency,[10],"inconclusive: 23 µM [inhibitor, partial curve]"
same,Potency,[11],"inconclusive: 18.3 µM [inhibitor, partial curve]"
same,Potency,[17],inactive
same,Potency,[4],"inconclusive: 29.1 µM [inhibitor, single point]"
same,Potency,[9],inactive
NC(=O)NC1N=C([O][Al])NC1=O (stereo not given),Potency,[18],inactive
same,Potency,[19],inactive
same,Potency,[20],active: 5.49 µM
same,Potency,[10],inactive
same,outcome,[4],inactive
same,Potency,[9],"inconclusive: 22.4 µM [rising, single point]"
O=C(c1ccc(F)cc1)N1CCCC(c2nc(-c3ccc(F)cc3)no2)C1 (stereo not given),Potency,[1],"inconclusive: 14.6 µM [inhibitor, partial curve]"
same,Potency,[10],"inconclusive: 23 µM [inhibitor, partial curve, poor fit]"
same,Potency,[11],"inconclusive: 18.3 µM [inhibitor, partial curve, poor fit]"
same,Potency,[21],"inconclusive: 30.1 µM [inhibitor, partial curve]"
same,Potency,[4],"inconclusive: 20.6 µM [inhibitor, partial curve]"
same,Potency,[5],"inconclusive: 3.16 µM [cytotoxic, single point]"
same,Potency,[6],inactive
C=CCC1=C[C@]2(OC)[C@H](C)[C@@H](c3ccc4c(c3)OCO4)O[C@]2(OC)CC1=O,Potency,[10],"inconclusive: 17.9 µM [inhibitor, single point]"
same,Potency,[11],"inconclusive: 8.98 µM [inhibitor, partial curve]"
same,Potency,[4],"inconclusive: 20.2 µM [inhibitor, single point]"
same,Potency,[9],inactive
